Measured values from patent publication US20230416313A1 (published 2023).

T1: recombinant human complement factor H (CFH), isolated from moss (human, UniProt P08603 19-1231)
T1 chain: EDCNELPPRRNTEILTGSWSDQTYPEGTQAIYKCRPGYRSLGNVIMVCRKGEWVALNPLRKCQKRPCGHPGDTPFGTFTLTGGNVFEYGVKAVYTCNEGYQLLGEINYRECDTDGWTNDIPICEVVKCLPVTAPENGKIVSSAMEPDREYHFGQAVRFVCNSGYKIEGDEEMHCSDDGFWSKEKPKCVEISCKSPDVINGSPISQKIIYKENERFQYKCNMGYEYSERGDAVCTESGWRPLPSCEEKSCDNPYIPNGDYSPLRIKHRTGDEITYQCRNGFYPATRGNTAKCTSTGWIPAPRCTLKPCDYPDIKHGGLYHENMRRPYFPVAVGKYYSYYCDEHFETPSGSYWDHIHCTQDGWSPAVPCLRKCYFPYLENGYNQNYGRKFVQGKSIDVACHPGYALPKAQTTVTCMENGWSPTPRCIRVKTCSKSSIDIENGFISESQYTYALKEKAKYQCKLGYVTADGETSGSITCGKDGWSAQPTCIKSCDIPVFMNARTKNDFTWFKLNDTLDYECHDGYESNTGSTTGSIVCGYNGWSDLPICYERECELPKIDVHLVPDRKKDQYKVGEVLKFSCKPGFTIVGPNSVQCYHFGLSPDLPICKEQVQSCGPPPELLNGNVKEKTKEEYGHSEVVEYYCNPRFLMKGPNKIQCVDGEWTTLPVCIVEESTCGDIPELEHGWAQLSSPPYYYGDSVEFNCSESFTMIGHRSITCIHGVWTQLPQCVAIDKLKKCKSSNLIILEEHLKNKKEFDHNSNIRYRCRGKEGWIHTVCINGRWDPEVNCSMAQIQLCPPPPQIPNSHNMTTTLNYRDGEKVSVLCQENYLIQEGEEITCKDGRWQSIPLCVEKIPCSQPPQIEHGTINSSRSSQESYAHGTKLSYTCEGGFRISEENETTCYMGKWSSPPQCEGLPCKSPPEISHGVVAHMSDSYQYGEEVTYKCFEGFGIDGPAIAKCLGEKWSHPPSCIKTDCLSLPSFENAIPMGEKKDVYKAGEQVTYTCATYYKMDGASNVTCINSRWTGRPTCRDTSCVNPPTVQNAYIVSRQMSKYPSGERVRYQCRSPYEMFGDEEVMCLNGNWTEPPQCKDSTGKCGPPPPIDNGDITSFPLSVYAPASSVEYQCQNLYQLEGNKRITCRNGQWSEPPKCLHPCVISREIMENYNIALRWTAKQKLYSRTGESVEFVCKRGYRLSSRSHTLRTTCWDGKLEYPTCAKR

B1: CFH binding protein of SEQ ID NO: 22 (CID 209921) (designed binder)
chain: IAAKFDEAQQEWAFYHILHLYNLTEEQRNAFIQSLRDDPSVSQEVLGEAWKLNQSQAPKIAAKFDEAQYAAFWEIWHLPNLTEEQRWAFILSLHDDPSVSLEVLGEAQKLNDSQAPK
B2: CFH binding protein of SEQ ID NO: 11 (CID 209429) (designed binder)
chain: IAAKFDEAQQRAFYWILHLRNLTEEQRNAFIQSLRDDPSVSKEVLGEAYKLNKSQAPKIAAKFDEAQTAAFWEIWHLPNLTEEQRVAFIHSLQDDPSVSLEVLGEAQKLNDSQAPK
B3: CFH binding protein of SEQ ID NO: 12 (CID 209434) (designed binder)
chain: IAAKFDEAQQRAFYWILHLRNLTEEQRNAFIQSLRDDPSVSKEVLGEAYKLNVSQAPKIAAKFDEAQVAAFWEIWHLPNLTEEQRVAFIHSLQDDQSVSLEVLGEAQKLNDSQAPK
B4: CFH binding protein of SEQ ID NO: 21 (CID 209920) (designed binder)
chain: IAAKFDEAQQEAFYWILHLENLTEEQRNAFIQSLRDDPSVSEEVLGEALKLNVSQAPKIAAKFDEAQYAAFWEIQHLPNLTEEQRHAFIWSLLDDPSVSLEVLGEAQKLNDSQAPK
B5: SEQ ID NO 18 (designed binder)
chain: IAAKFDEAQWAAFYEIVHLPNLTEEQREAFIQSLWDDPSVSLEVLGEAQKLNDSQAPKIAAKFDEAQQAAFYEILHLPNLTERQRNWFIQQLRDDPSVSLTVLGRAQRLNDSQAPK
B6: SEQ ID NO 16 (designed binder)
chain: IAAKFDEAQWAAFYEIVHLPNLTEEQREAFIQSLWDDPSVSLEVLGEAQKLNDSQAPKIAAKFDEAQQAAFYEILHLPNLTERQRNWFIQRLRDDPSVSLWVLGRAQRLNDSQAPK
B7: CFH binding protein of SEQ ID NO: 19 (CID 209860) (designed binder)
chain: IAAKFDEAQWAAFEEIAHLPNLTEEQREAFIQSLWDDPSVSLEVLGEAQKLNDSQAPKIAAKFDEAQQAAFYEILHLPNLTERQRNWFIQRLRDDPSVSLWVLGRAQRLNDSQAPK
B8: 209354 (protein)
chain: IAAKFDEAQWAAFYEIVHLPNLTEEQREAFIQSLWDDPSVSLEVLGEAQKLNDSQAPKIAAKFDEAQQAAFYEILHLPNLTEHQRNHFIQKLRDDPSVSLQVLGHAQRLNDSQAPK
B9: CFH binding protein of SEQ ID NO: 10 (CID 209372) (designed binder)
chain: IAAKFDEAQWAAFYEIVHLPNLTEEQREAFIQSLWDDPSVSLEVLGEAQKLNDSQAPKIAAKFDEAQQAAFYEILHLPNLTEQQRNYFIQRLRDDPSVSLAVLGHAQKLNDSQAPK
B10: SEQ ID NO 15 (designed binder)
chain: IAAKFDEAQEAAFWEIQHLPNLTEEQRWAFIWSLADDPSVSLEVLGEAQKLNDSQAPKIAAKFDEAQQAAFYEILHLPNLTEWQRNYFIQKLRDDPSVSLWVLGQAQILNDSQAPK
B11: SEQ ID NO 17 (designed binder)
chain: IAAKFDEAQEAAFWEIQHLPNLTEEQRWAFIWSLADDPSVSLEVLGEAQKLNDSQAPKIAAKFDEAQQAAFYEILHLPNLTEHQRNLFIQRLRDDPSVSLWVLGQAQILNDSQAPK
B12: affinity ligand 209621 (SEQ ID NO: 13) (designed binder)
chain: IAAKFDEAQTAAFWEIEHLPNLTEEQRWAFIWSLADDPSVSLEVLGEAQKLNDSQAPKIAAKFDEAQQAAFYEILHLPNLTEWQRNYFIQKLRDDPSVSLWVLGQAQILNDSQAPK
B13: SEQ ID NO 14 (designed binder)
chain: IAAKFDEAQEAAFWEIQHLPNLTEEQRWAFIWSLADDPSVSLEVLGEAQKLNDSQAPKIAAKFDEAQQAAFYEILHLPNLTEYQRNLFIQRLRDDPSVSLWVLGQAQILNDSQAPK
B14: 209264 (protein)
chain: IAAKFDRIQSIADEVILILPNLTEEQRNAFRQSLSDDPSVSEEVLYEALYLNYSQAPK
B15: 208854 (protein)
chain: IAAKFDEAQQKAFYWILHLRNLTEEQRNAFIQSLRDDPSVSTEVLGEALKLNQSQAPKIAAKFDEAQWAAFYEIVHLPNLTEEQREAFIQSLWDDPSVSLEVLGEAQKLNDSQAPK
B16: SEQ ID NO 7 (designed binder)
chain: IAAKFDEAQWAAFYEIVHLPNLTEEQREAFIQSLWDDPGVSLEVLGEAQKLNDSQAPKIAAKFDEAQQAAFYEILHLPNLTEAQRNHFIQRLRDDPSVSLVVLGQAQKLNDSQAPK

Molecular target: T1, recombinant human complement factor H …
Test: BLI; steady state
In the case of B1, the Kd is reported as 0.039 µM.
With B2 the Kd was 0.46 µM.
Binder B3 has a Kd of 0.9 µM.
B4 gave a Kd of 0.081 µM.
B5 was tested, and the Kd was 0.238 µM.
B6 gave a Kd of 0.06 µM.
B7 gave a Kd of 0.225 µM.
B8 gave a Kd of 0.74 µM.
Work on B9 yielded a Kd of 0.75 µM.
Binder B10 has a Kd of 0.026 µM.
Binder B11 has a Kd of 0.031 µM.
With B12 the Kd was 0.025 µM.
For B13, the Kd was 0.031 µM.

Molecular target: T1, recombinant human complement factor H …
Test: SPR; steady state
B14 was tested, and the Kd was 0.114 µM.

Molecular target: T1, recombinant human complement factor H …
Test: SPR; kinetic
B15 gave a Kd of 0.097 µM.
In the case of B16, the Kd is reported as 0.286 µM.
